Read counts are not given, so values of variants with three or more changes are uncertain.
B1: CPEB3 Ribozyme (parent)
chain: UAACAGGGGGCCACAGCAGAAGCGUUCACGUCGCAGCCCCUGUCAGAUUCUGGUGAAUCUGCGAAUUCUGCUGUAUAUCUC

Variants of: B1
Experiment: self-cleavage, relative activity (ratio to wild type); higher = more cleavage; in vitro, sequencing
Summary of the method: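 Barcoded CPEB3 ribozyme mutants, produced by rounds of error-prone PCR, self-cleaved while being transcribed with T7 RNA polymerase for 5 hours at 37°C and during a subsequent 15 min DNase I step before EDTA was added. Sequencing of template-switched cDNA on Illumina gave cleaved and total reads, and DNA sequencing assigned barcodes to variants. Each variant's relative activity is its cleaved/total read fraction divided by the unmutated ribozyme's fraction, averaged across three batches. A variant needed a minimum of 5 reads.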

Variant | self-cleavage
C11U A20U A21G U48C A57G U67C U69A | 0.02
C11U A56G U66C | 0.09
C11U A15U A45G A47G U48C A56U | 0.16
G10A U26C U60C | 0.06
C12G C23U U25G | 0.05
C12A U58C A65G | 0.24
C11U A13G U25C A64U U69A | 0.03
C11U A13U U51C U80C | 0.48
G10U G30A A45G U60C U76C | 0.09
C11A C23U U43A C62U | 0.07
G10A U49C U67C | 0.09
C11G U48C A64G | 0.48
C11U A15G A56G U72C | 0.29
C11U U31A U76C U80C | 0.09
C11G C17U A56U U66C | 0.05
C12A G19C U69C | 0.09
C11G A20G G24A A47G A65C | 0.05
C11U A13U U26C A64G A65G U74C | 0.05
C11G G24C U25C U51C U72A | 0.23
C11G G33U U49A G52A | 0.24
C11G U51C U69C | 0.2
C12U A13U A21G A28G A56U A57G U67C | 0.35
G10C A28U U49C G52U | 0.04
C11A A18G G24U U43A A65G U66C U78A | 0.03

Variant | self-cleavage
C11A A15U A18U A56G | 0.07
C11A A21G U26C | 0.06
C12U A13G U49C U67A U80G | 0.07
C12U A15G U25C U26C C44U | 0.32
G10C A28U A45G U54C | 0.11
G10A U60A U69C U72A | 0.05
C12A C27U U54A U80C | 0.3
G10A U43C C62U U74A | 0.22
G10A U43C U54C A56U A64G A77G | 0.02
C11U G16C U43C U69A | 0.14
C11G U31C U49A U60A U69C | 0.08
C11A U54C A77C | 0.1
C11A G30A A77G | 0.07
C11U C50U A56U | 0.15
C12G C39A A45U U72C | 0.05
G10C G19A C34A A45G | 0.07
C12A A13G A21G G55C | 0.42
C12G A13G A28G U49A U60C C62U U80A | 0.11
C11A U51C U74A | 0.4
C11G A64G U69C U80C | 0.03
C11U U26A C38U U66A U72C U76A | 0.08
G10U C23U U41G U43C A56G U76C | 0.04
C11U A64G U66C | 0.22
C11G G30U U60G | 0.08

Variant | self-cleavage
G10C A15U A56U U58A | 0.11
C11G G24A U25C | 0.35
C11G A64G C68A U69A | 0.06
C11A A15U A35G A45G | 0.39
G10A U54C C68U | 0.08
C12G C23U U48C C68U | 0.03
C12A C17U G30U U54C A77U U80C | 0.2
C11G A15G C39G U72C | 0.36
C11U A21G U41A U49A G70A U78A | 0.04
C12A A13C U51A U54C U69C | 0.47
C11G C39A G63A A64G U66C | 0.04
C12A A18U U26A C29A | 0.34
G10U C17G A45U U54C U78A | 0.15
C11A C38U U58C | 0.2
G10U U26C U54C A56G U60A U72C | 0.05
C12U A13G A21U U26A A45G G46A A77G | 0.05
C11U U31A U76A | 0.13
G10A U25C A57G U74C | 0.17
G10U U26A A64G U69C | 0.04
C11G G19C A21G A56G | 0.09
C11A G53U U58C U69C | 0.17
G10A U43C U48C | 0.07
G10C U54A U69A | 0.15
C11U A28G G55U | 0.11

Variant | self-cleavage
C11U U60C U80G | 0.22
G10U U25C A56U A65G | 0.1
C12U A13G U25C U72C U78C | 0.39
C11U A21G G55C U58C A64G | 0.04
C12U A15G U67C U80C | 0.11
C12G U41C G73A | 0.96
C12U A13G U66C U72C | 0.18
G10C C12A A47G | 0.09
C11G G16A G42A A45U A47G U51C U66C | 0.02
C11U U76G A77G | 0.32
C11U A13U U41A U72A | 0.06
G10C U49C U72C | 0.35
C11G U25C U60A A75G | 0.05
C11U U51A A57U G63A U78C | 0.09
C12G A21G U25C U31A | 0.25
C11G A13G A21C A28U G42A C62A | 0.02
G10C U43A A45U A64G | 0.15
C11G C32U U43C A45C A75G | 0.1
G10A U25C C29U A35G A56G C71G U72C | 0.04
C11A A18U C29U U31G | 0.07
C12A C17G A20G A21G U31A U72C A75U | 0.17
C11G U31A A35U U43C U54A | 0.28
C11G U31A U43C A45G | 0.3
G10U A47G U78C | 0.08

Variant | self-cleavage
G10A U41G U49C | 0.09
C11G A13U A57G U78A | 1.14
C11G A21U G36A A75U | 0.07
C11U U25A U43A U49C | 0.32
G10A U41A U48C A64U A65G G73A | 0.03
G10A U41A U54C U80C | 0.17
G10A U26C A35G A45G U74C U76C | 0.1
C11U C23U A45G U48A | 0.19
C11G A15G A28U U80G | 0.1
C11U A18G U51A A56U | 0.08
C11U A20G A28G A64G | 0.25
G10C A28G U69C | 0.16
C12U A18G A21G U43G A75U | 0.31
C11U U43C U67C | 0.06
G10A U41C G63U | 0.49
C11G A15U U43G U49C U54C A56U U58C | 0.05
C12A U41A U78C | 0.23
C12A A15U A21G U80A | 0.2
G10U U25C A45U G46C U69C U72C A77G | 0.04
C12U A13U U58C U78C | 0.72
G10C A35G U54A A56G | 0.1
G10C A47U U58C A77G | 0.1
C11G A15G A56G U67A C81A | 0.06
G10C U26A A35G U58A | 0.14

Variant | self-cleavage
C12U A13G U80C | 0.55
C11G U41A A57C U66C U80A | 0.04
C11A G33A A35U U43G | 0.03
G10A U49A A56G U66C | 0.03
G10C G33A A45G U58A U66C U80C | 0.18
C11G U25G U43A U48C U54C U78C | 0.05
G10U C11G G52C | 0.26
G10A U49A A56G | 0.25
C12G A64G U69C | 0.08
C11U A20G A45G U66C | 0.09
C11A A15G A35U A57G U69A | 0.07
G10A U26C A35G G36U U69A | 0.04
C11G U51C U72C | 0.63
G10U A13G A18G A45G | 0.12
C12G A18G U43C | 0.31
C11G A47U A64G | 0.09
C11U G33U A35G A57G A65G U72A | 0.04
C11G C23A U49A A56G | 0.14
C12A U26C U31C U48C A57G | 0.3
C11G A45G U72C | 0.49
G10C U43C U48C A65U U67C | 0.13
C12A A35G U41A U54C C68G | 0.19
C11A U41A A57G | 0.38
G10A U43G U49C A77G | 0.11

Variant | self-cleavage
C11G C23A A28G U31A C40U | 0.05
C11U A35U C40U A75G | 0.06
C11U C12U U26C U48C U69C | 0.15
C11G U26A U31C G33A U48C A65G | 0.03
C11G A13G U26C G33U | 0.06
C11U G46U A47G | 0.22
C11G U76C U80A | 0.35
C11G U66A A75G | 0.08
C11U C12G U31C A35G U49C | 0.14
G10U U26A U51A A64U | 0.13
C12A A20G U25C G33A U41C U49C U69C | 0.04
C11A G30A A64G U74A | 0.15
C11G A21G U25A A57G U67C | 0.12
G10U U26A U41C U69G U80C | 0.06
C12A U49A A57G | 0.46
C11U U31A U43C | 0.34
G10U A64G G70C | 0.32
C11A A20G A45C U49A | 0.17
C11A U31C U54A | 0.13
C11G A13U U41C U49C U69C A77G C81A | 0.16
G10C A18G A20G U60C A64G | 0.22
C11G A28G A57G | 0.26
C11U A18U A28G A47G A56U U72C U80A | 0.04

— the RNAGym collection of RNA variant scans (doi:10.1093/nar/gkz1192)
